Assay results taken from publication PMC4336329 (PLoS ONE, 2015).
Among all 310,000 compounds or so, about 14,000 (4.5%) showed an effect of 50% or more. The effect is printed as a negative number. The list shows a part of the results.

The compounds below were run against human ether-à-go-go-related gene (hERG) potassium channel (human, UniProt Q12809) (assay: primary screen, population patch clamp on CHO cells stably expressing hERG).
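Further: peak tail current of the secondary pulse compared with the same well before compound.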

Sequence of human ether-à-go-go-related gene (hERG) potassium channel (Q12809 whole entry, looked up): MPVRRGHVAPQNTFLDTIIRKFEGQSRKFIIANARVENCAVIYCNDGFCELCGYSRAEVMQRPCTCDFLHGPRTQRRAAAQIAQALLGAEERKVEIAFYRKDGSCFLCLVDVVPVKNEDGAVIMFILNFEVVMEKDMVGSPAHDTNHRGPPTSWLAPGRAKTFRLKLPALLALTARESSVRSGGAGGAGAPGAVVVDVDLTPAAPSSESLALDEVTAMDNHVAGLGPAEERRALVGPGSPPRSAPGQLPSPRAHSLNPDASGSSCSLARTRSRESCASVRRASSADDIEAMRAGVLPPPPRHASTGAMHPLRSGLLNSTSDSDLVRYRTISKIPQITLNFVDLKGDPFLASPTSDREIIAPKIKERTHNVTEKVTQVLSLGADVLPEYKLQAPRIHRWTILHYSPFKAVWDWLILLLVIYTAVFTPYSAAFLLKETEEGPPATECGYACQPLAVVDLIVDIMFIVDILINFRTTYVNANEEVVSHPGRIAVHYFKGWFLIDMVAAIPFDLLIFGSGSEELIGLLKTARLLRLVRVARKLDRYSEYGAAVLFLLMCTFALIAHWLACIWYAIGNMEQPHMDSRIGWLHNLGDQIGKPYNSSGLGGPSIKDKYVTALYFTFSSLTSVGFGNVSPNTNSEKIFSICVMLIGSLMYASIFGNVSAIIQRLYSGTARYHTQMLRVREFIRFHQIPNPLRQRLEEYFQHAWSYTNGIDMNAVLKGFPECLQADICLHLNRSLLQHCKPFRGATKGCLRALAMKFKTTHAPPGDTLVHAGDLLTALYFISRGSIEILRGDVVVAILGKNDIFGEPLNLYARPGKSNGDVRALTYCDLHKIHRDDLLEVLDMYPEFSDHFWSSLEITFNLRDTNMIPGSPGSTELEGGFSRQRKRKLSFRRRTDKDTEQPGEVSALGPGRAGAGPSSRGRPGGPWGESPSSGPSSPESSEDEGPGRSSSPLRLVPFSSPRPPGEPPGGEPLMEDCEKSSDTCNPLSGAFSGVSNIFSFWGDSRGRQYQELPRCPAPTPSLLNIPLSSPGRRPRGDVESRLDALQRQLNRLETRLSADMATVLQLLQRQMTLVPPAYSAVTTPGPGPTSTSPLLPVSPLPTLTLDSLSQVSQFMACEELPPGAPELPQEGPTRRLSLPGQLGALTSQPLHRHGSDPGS

Compound | hERG current change (%, negative = inhibition) at 10uM [%]
COC(=O)c1ccc(S(=O)(=O)N2CCN(C)CC2)n1C | 15
Cc1ccc(S(=O)(=O)N2CCN(S(=O)(=O)N3CCCCCC3)CC2)cc1 | 20.4
Cc1ccc(CC2CC(=O)N(c3nc4ccccc4n3C)C2=O)cc1 (stereo not drawn) | -1.79
COC(=O)c1c(C)nn(-c2ccc(F)c(Cl)c2)c1-c1cc(C)on1 | -4.39
O=C(CNC(=O)c1ccccc1F)OCc1nc2ccc(Cl)cc2n1CCO | -32.6
O=C(Cc1ccc(Br)cc1)c1ccc(O)cc1O | 14.3
COc1ccc(/C=C/C(=O)N(C)C2CCS(=O)(=O)C2)cc1OC (stereo not drawn) | 2.01
CC(=O)Oc1ccc(C2(C)CC(C)(C)NC(=S)N2C)c(OC(C)=O)c1 (stereo not drawn) | 12.1
O=C(C1=C[C@H](c2csc3ccccc23)C[C@H](OCCCCO)O1)N1CCN(Cc2ccccc2)CC1 | -28.6
N/C(=N\OC(=O)c1cccnc1)c1ccc(Cl)cc1Cl | 12.7
COCCn1c(SCC(=O)c2ccc(Cl)cc2)nnc1C(C)C | 7.06
O=C(NCC(c1ccco1)N1CCc2ccccc21)c1cccc(F)c1 (stereo not drawn) | -19.4
O=C(N(c1ccccn1)c1ccccn1)C12CC3CC(CC(Cl)(C3)C1)C2 | 11.5
Cc1cc(=O)oc2cc(OCC(=O)NCCCN3CCCC3=O)c(Cl)cc12 | 1.84
Cc1ccc(S(=O)(=O)NCCNC(=O)c2nonc2N)cc1 | 21.6
O=C(Nc1ccc(F)c(F)c1)c1oc2ccccc2c1NC(=O)C1CCCO1 (stereo not drawn) | 7.59
Brc1ccccc1OCCCN1CCCCCC1.O=C(O)C(=O)O | -72.6
Cc1ccc(S(=O)(=O)c2c(N)n(NC(=O)c3ccccc3C)c3nc4ccccc4nc23)cc1 | -5.04
CCCCN(C)CCn1c(=S)[nH]c2ccc(N3CCOCC3)cc2c1=O | -26
CCOc1ccc(C(=O)N2CCCC2C(=O)O)cc1 (stereo not drawn) | 19.4
COc1ccc(CNC2CCCCC2C)c(OC)c1 (stereo not drawn) | -56.9
CCCCN1C(C)=CC(=C2C(=O)c3ccccc3C2=O)C=C1C | 3.87
C=CCN1C(=O)c2ccc(C(=O)OCC(=O)N(CC)C3CCS(=O)(=O)C3)cc2C1=O (stereo not drawn) | -13.8

Compound | hERG current change (%, negative = inhibition) at 10uM [%]
CCN(CC)C(=O)CSc1nnc(-c2cccnc2)n1CCc1ccccc1 | -5.95
CN(C)NC(=S)Nc1ccc2nc(-c3ccccn3)c(-c3ccccn3)nc2c1 | 8.39
COc1ccc2c(c1OC)C(=O)N1N=C(c3ccc(Cl)cc3)CC21 (stereo not drawn) | -28.3
CCc1nc(C#N)c(N2CCCCC2)o1 | 16.2
Cn1ccnc1SCc1cn2cc(Br)ccc2n1 | -5.22
Oc1ccc(-c2nnc(-c3ccc(O)cc3)nn2)cc1 | 14.7
COc1cc(C(=O)NCCC(=O)NCCN2CCCCCC2)cc(OC)c1OC | -6.34
CCOc1ccc(-c2c(C(=O)N/N=C/c3cccnc3)nnn2-c2nonc2N)cc1 | 9.94
CC(C)[C@H](NC(=O)[C@@H]1Cc2ccccc2CN1C(=O)OC(C)(C)C)C(=O)NC1CCCC1 | 16
CC(C)NC(=O)Cn1c(SCC(=O)N2CCCc3ccccc32)nc2ccccc21 | 11.6
CC(=O)c1ccc(NC(=S)N2CCN(c3cccc(Cl)c3)CC2)cc1 | -16.2
CCOc1ccc(C(=O)Nc2ccccc2C#N)cc1[N+](=O)[O-] | -55.6
CCOCCCn1c(SCC(=O)N(C)C2CCS(=O)(=O)C2)nc2ccccc2c1=O (stereo not drawn) | -37.5
COc1ccc(NC(=O)N2C3CCCC2CC(NC(=O)c2ccccc2)C3)cc1 (stereo not drawn) | -15.9
C=C(C)CNC(=S)NNC(=O)c1ccc(Br)cc1 | 6.24
COc1ccc(Cl)c(NC(=O)C/C(C)=N/NC(=O)CCc2ccccc2)c1 | -1.95
COc1ccc(C2SCC(=O)N2c2c(C)n(C)n(-c3ccccc3)c2=O)cc1 (stereo not drawn) | -2.6
CN1CCN(c2ccc([N+](=O)[O-])cc2/C=N/NC(=O)c2cccc([N+](=O)[O-])c2)CC1 | -54
N#Cc1cccnc1N1CCN(C(=O)c2ccco2)CC1 | 9.49
CC(=O)c1ccccc1OCCCN1CCCCC1.O=C(O)C(=O)O | -31.8
N/C(=N\S(=O)(=O)c1cc(C(F)(F)F)cc(C(F)(F)F)c1)c1cccs1 | 4.04
CCOC(=O)N1CCN(C(=O)CN(c2cc(Cl)ccc2OC)S(=O)(=O)c2ccccc2)CC1 | -19.4
